The experiment deals with MLKL phosphorylation, HT29-L23 human colorectal adenocarcinoma cells. Briefly: cells. To be noted: read-out: pMLKL HCS Cell Assay (IC50, uM).
Regarding `COc1ncc(-c2cc(C(F)(F)F)c3c(N)ncnn23)cc1C(=O)NC1CN(Cc2cccc3cccnc23)CC1F` (racemic) [Example 226, 5-[4-amino-5-(trifluoromethyl)pyrrolo[2,1-f][1,2,4]triazin-7-yl]-N-{4-fluoro-1-[(quinolin-8-yl)methyl]pyrrolidin-3-yl}-2-methoxypyridine-3-carboxamide], the concentration for half-maximal inhibition (IC50) (in general, the concentration needed to halve the response being measured) was found to be 0.259 µM.

In the case of `C[C@@](O)(C(=O)N1C[C@H](F)[C@H](NC(=O)c2cc(-c3cc(C(F)(F)F)c4c(N)ncnn34)ccc2Cl)C1)C(F)(F)F` [Example 935, 5-[4-amino-5-(trifluoromethyl)pyrrolo[2,1-f][1,2,4]triazin-7-yl]-2-chloro-N-[(3R,4S)-4-fluoro-1-[(2R)-3,3,3-trifluoro-2-hydroxy-2-methylpropanoyl]pyrrolidin-3-yl]benzamide], the IC50 is 0.002 µM.

On to `COc1ncc(-c2cc(C(F)(F)F)c3c(N)ncnn23)cc1C(=O)N[C@@H]1CN(C2CCCC2O)C[C@@H]1F` (mixture of isomers) [Example 1406, 5-[4-amino-5-(trifluoromethyl)-pyrrolo[2,1-f][1,2,4]triazin-7-yl]-N-[(3R,4S)-4-fluoro-1-(2-hydroxycyclopentyl)pyrrolidin-3-yl]-2-methoxypyridine-3-carboxamide], for which the IC50 worked out at 0.153 µM.

Turning to `CC(O)(CC(=O)N1C[C@H](F)[C@H](NC(=O)c2c(F)ccc(-c3cc(C(F)(F)F)c4c(N)ncnn34)c2F)C1)C(F)(F)F` (stereo partly drawn) [Example 721, 3-[4-amino-5-(trifluoromethyl)pyrrolo[2,1-f][1,2,4]triazin-7-yl]-2,6-difluoro-N-[(3R,4S)-4-fluoro-1-(4,4,4-trifluoro-3-hydroxy-3-methylbutanoyl)pyrrolidin-3-yl]benzamide], the concentration for half-maximal inhibition (IC50) was 0.129 µM.

As for `Cc1ccc(-c2cc(C(F)(F)F)c3c(N)ncnn23)cc1C(=O)N[C@@H]1CN(C(=O)c2ccccc2F)C[C@@H]1F` [Example 998, 5-[4-amino-5-(trifluoromethyl)pyrrolo[2,1-f][1,2,4]triazin-7-yl]-N-[(3R,4S)-4-fluoro-1-(2-fluorobenzoyl)pyrrolidin-3-yl]-2-methylbenzamide], the IC50 worked out at 0.0012 µM.

Regarding `COc1ncc(-c2cc(C(F)(F)F)c3c(N)ncnn23)cc1C(=O)NC1CN(CC(O)(C2CC2)C(F)(F)F)C[C@@H]1F` (stereo partly drawn) [Example 1826, 5-(4-amino-5-(trifluoromethyl)pyrrolo[2,1-f][1,2,4]triazin-7-yl)-N-((3R,4S)-1-(2-cyclopropyl-3,3,3-trifluoro-2-hydroxypropyl)-4-fluoropyrrolidin-3-yl)-2-methoxynicotinamide], the IC50 stood at 0.0077 µM.

Regarding `Cc1ccc(-c2cc(C(F)(F)F)c3c(N)ncnn23)c(F)c1C(=O)N[C@@H]1CN(C(=O)CC(C)C)C[C@@H]1F` [Example 748, 3-[4-amino-5-(trifluoromethyl)pyrrolo[2,1-f][1,2,4]triazin-7-yl]-2-fluoro-N-[(3R,4S)-4-fluoro-1-(3-methylbutanoyl)pyrrolidin-3-yl]-6-methylbenzamide], the IC50 was 0.0035 µM.

Turning to `CCc1c(F)cc(-c2cc(C(F)(F)F)c3c(N)ncnn23)cc1C(=O)N[C@@H]1CN(C(=O)C2CC2(F)F)C[C@@H]1F` (stereo partly drawn) [Example 649, 5-[4-amino-5-(trifluoromethyl)pyrrolo[2,1-f][1,2,4]triazin-7-yl]-N-[(3R,4S)-1-(2,2-difluorocyclopropanecarbonyl)-4-fluoropyrrolidin-3-yl]-2-ethyl-3-fluorobenzamide], the IC50 was found to be 0.035 µM.

Consider `COc1ncc(-c2cc(CN3CCC(F)(F)CC3)c3c(N)ncnn23)cc1C(=O)N[C@@H]1CN(C(=O)C(C)(C)C(F)(F)F)C[C@@H]1F` [Example 1622, 5-{4-amino-5-[(4,4-difluoropiperidin-1-yl)methyl]pyrrolo[2,1-f][1,2,4]triazin-7-yl}-N-[(3R,4S)-4-fluoro-1-(3,3,3-trifluoro-2,2-dimethylpropanoyl)pyrrolidin-3-yl]-2-methoxypyridine-3-carboxamide], for which the IC50 is 0.0011 µM.

As to `COc1ncc(-c2cc(CN3CCCC(=O)N3)c3c(N)ncnn23)cc1C(=O)N[C@@H]1CN(C(=O)C2CC(F)(F)C2)C[C@@H]1F` [Example 1715, 5-(4-amino-5-((3-oxotetrahydropyridazin-1(2H)-yl)methyl)pyrrolo[2,1-f][1,2,4]triazin-7-yl)-N-((3R,4S)-1-(3,3-difluorocyclobutane-1-carbonyl)-4-fluoropyrrolidin-3-yl)-2-methoxynicotinamide], the IC50 was found to be 0.038 µM.

On to `Nc1ncnn2c(-c3ccc(Cl)c(C(=O)N[C@@H]4CN(C(=O)c5cnccc5C(F)(F)F)C[C@@H]4F)c3)cc(C(F)(F)F)c12` [Example 953], for which the half-maximal inhibitory concentration (IC50) stood at 0.182 µM.

Consider `Cc1cc(F)c(-c2cc(C(F)(F)F)c3c(N)ncnn23)cc1C(=O)N[C@@H]1CN(C(=O)c2ncccc2F)C[C@@H]1F` [Example 817, 5-[4-amino-5-(trifluoromethyl)pyrrolo[2,1-f][1,2,4]triazin-7-yl]-4-fluoro-N-[(3R,4S)-4-fluoro-1-(3-fluoropyridine-2-carbonyl)pyrrolidin-3-yl]-2-methylbenzamide], for which the IC50 is 0.022 µM.

In the case of `Cc1ccc(-c2cc(C(F)(F)F)c3c(N)ncnn23)cc1C(=O)Nc1cnn(C(c2ccccc2)C(F)(F)F)c1` (stereo not drawn) [Example 1815, 5-(4-amino-5-(trifluoromethyl)pyrrolo[2,1-f][1,2,4]triazin-7-yl)-2-methyl-N-(1-(2,2,2-trifluoro-1-phenylethyl)-1H-pyrazol-4-yl)benzamide], the IC50 amounted to 0.0029 µM.

Turning to `COc1ncc(-c2cc(C(F)(F)F)c3c(N)ncnn23)cc1C(=O)N1CCCC(C)(C(O)c2ccc(F)cc2)C1` (stereo not drawn) [Example 1737, (5-(4-amino-5-(trifluoromethyl)pyrrolo[2,1-f][1,2,4]triazin-7-yl)-2-methoxypyridin-3-yl)(3-((4-fluorophenyl)(hydroxy)methyl)-3-methylpiperidin-1-yl)methanone], the IC50 was found to be 0.036 µM.

Consider `Nc1ncnn2c(-c3ccc(CF)c(C(=O)N[C@@H]4CN(C(=O)C5CCC(F)(F)C5)C[C@@H]4F)c3)cc(C(F)(F)F)c12` (stereo partly drawn) [Example 920, 5-[4-amino-5-(trifluoromethyl)pyrrolo[2,1-f][1,2,4]triazin-7-yl]-N-[(3R,4S)-1-(3,3-difluorocyclopentanecarbonyl)-4-fluoropyrrolidin-3-yl]-2-(fluoromethyl)benzamide], for which the IC50 was determined as 0.0023 µM.

With `COc1ncc(-c2cc(C(F)(F)F)c3c(N)ncnn23)cc1C(=O)N[C@@H]1CN(C(=O)C2(C)COC(C)(C)OC2)C[C@@H]1F` [Example 1681, 5-(4-amino-5-(trifluoromethyl)pyrrolo[2,1-f][1,2,4]triazin-7-yl)-N-((3R,4S)-4-fluoro-1-(2,2,5-trimethyl-1,3-dioxane-5-carbonyl)pyrrolidin-3-yl)-2-methoxynicotinamide], the 50% inhibitory concentration (IC50) stood at 0.121 µM.

Take `COc1ncc(-c2cc(CN3CCC(F)(F)CC3)c3c(N)ncnn23)cc1C(=O)N[C@@H]1CN(C(=O)c2c(F)cccc2F)C[C@@H]1F` [Example 1242, 5-{4-amino-5-[(4,4-difluoropiperidin-1-yl)methyl]pyrrolo[2,1-f][1,2,4]triazin-7-yl}-N-[(3R,4S)-1-(2,6-difluorobenzoyl)-4-fluoropyrrolidin-3-yl]-2-methoxypyridine-3-carboxamide]: the IC50 came out at 0.00044 µM.

As for `COc1ncc(-c2cc(C(F)(F)F)c3c(N)ncnn23)cc1C(=O)NC1CN(C2CCCC2(C)C)C[C@@H]1F` (stereo partly drawn) [Example 1365, 5-[4-amino-5-(trifluoromethyl)-pyrrolo[2,1-f][1,2,4]triazin-7-yl]-N-[(3R,4S)-1-(2,2-dimethylcyclopentyl)-4-fluoropyrrolidin-3-yl]-2-methoxypyridine-3-carbox-amide], the half-maximal inhibitory concentration (IC50) was determined as 0.253 µM.

`Nc1ncnn2c(-c3ccc(Cl)c(C(=O)N[C@@H]4CN(C(=O)c5ccc(Cl)cc5)C[C@@H]4F)c3)cc(C(F)(F)F)c12` [Example 947, 5-[4-amino-5-(trifluoromethyl)pyrrolo[2,1-f][1,2,4]triazin-7-yl]-2-chloro-N-[(3R,4S)-1-(4-chlorobenzoyl)-4-fluoropyrrolidin-3-yl]benzamide]: the IC50 came to 0.071 µM.

As to `CC(C(=O)N1C[C@H](F)[C@H](NC(=O)c2cc(-c3cc(C(F)(F)F)c4c(N)ncnn34)ccc2CF)C1)C(F)(F)F` (stereo partly drawn) [Example 924, 5-[4-amino-5-(trifluoromethyl)pyrrolo[2,1-f][1,2,4]triazin-7-yl]-N-[(3R,4S)-4-fluoro-1-(3,3,3-trifluoro-2-methylpropanoyl)pyrrolidin-3-yl]-2-(fluoromethyl)benzamide], the IC50 turned out to be 0.005 µM.

As for `Nc1ncnn2c(-c3cc(F)c(CF)c(C(=O)N[C@@H]4CN(C(=O)c5ccccc5F)C[C@@H]4F)c3)cc(C(F)(F)F)c12` [Example 626, 5-[4-amino-5-(trifluoromethyl)pyrrolo[2,1-f][1,2,4]triazin-7-yl]-3-fluoro-N-[(3R,4S)-4-fluoro-1-(2-fluorobenzoyl)pyrrolidin-3-yl]-2-(fluoromethyl)benzamide], the IC50 was 0.0028 µM.

As for `Nc1ncnn2c(-c3cc(C(=O)N[C@@H]4CN(C(=O)c5ccc(F)cc5)C[C@@H]4F)c(Cl)cc3F)cc(C(F)(F)F)c12` [Example 405, 5-[4-amino-5-(trifluoromethyl)pyrrolo[2,1-f][1,2,4]triazin-7-yl]-2-chloro-4-fluoro-N-[(3R,4S)-4-fluoro-1-(4-fluorobenzoyl)pyrrolidin-3-yl]benzamide], the IC50 worked out at 0.0085 µM.

On to `COc1ccc(-c2cc(C(F)(F)F)c3c(N)ncnn23)cc1C(=O)N[C@@H]1CN(C(=O)CC(C)C)C[C@@H]1F` [Example 1117, 5-[4-amino-5-(trifluoromethyl)pyrrolo[2,1-f][1,2,4]triazin-7-yl]-N-[(3R,4S)-4-fluoro-1-(3-methylbutanoyl)pyrrolidin-3-yl]-2-methoxybenzamide], for which the IC50 is 0.0073 µM.

In the case of `Nc1ncnn2c(-c3ccc(C(F)(F)F)c(C(=O)N[C@@H]4CN(C(=O)CC(O)(C(F)(F)F)C(F)(F)F)C[C@@H]4F)c3)cc(C(F)(F)F)c12` [Example 891, 5-[4-amino-5-(trifluoromethyl)pyrrolo[2,1-f][1,2,4]triazin-7-yl]-N-[(3R,4S)-4-fluoro-1-[4,4,4-trifluoro-3-hydroxy-3-(trifluoromethyl)butanoyl]pyrrolidin-3-yl]-2-(trifluoromethyl)benzamide], the IC50 came to 0.0093 µM.

(Values after patent US11618753B2 (priority 2018, dated 2023).)
